# This is one part of the list.
# B1: PhoQ; a variant is named by its letters at X, in order, P23837 (parent)
# chain: MKKLLRLFFPLSLRVRFLLATAAVVLVLSLAYGMVALIGYSVSFDKTTFRLLRGESNLFYTLAKWENNKLHVELPENIDKQSPTMTLIYDENGQLLWAQRDVPWLMKMIQPDWLKSNGFHEIEADVNDTSLLLSGDHSIQQQLQEVREDDDDAEMTHSVAVNVYPATSRMPKLTIVVVDTIPVELKSSYMVWSWFIYVLSANLLLVIPLLWVAAWWSLRPIEALAKEVRELEEHNRELLNPATTRELTSLVRNLNRLLKSERERYDKYRTTLTDLTHSLKTPLXXLQXXLRSLRSEKMSVSDAEPVMLEQISRISQQIGYYLHRASMRGGTLLSRELHPVAPLLDNLTSALNKVYQRKGVNISLDISPEISFVGEQNDFVEVMGNVLDNACKYCLEFVEISARQTDEHLYIVVEDDGPGIPLSKREVIFDRGQRVDTLRPGQGVGLAVAREITEQYEGKIVAGESMLGGARMEVIFGRQHSAPKDE
# Variants of: B1
# Assay: enrichment ratio after two sorts for PhoP signalling (ratio (wild type AVST 3.29)); higher = more functional
# Settings: with PhoP (E. coli)
row,Variant,enrichment ratio
1,PNIY,≤ 0.25
2,QPFD,≤ 0.25
3,VHNY,≤ 0.25
4,VERK,≤ 0.25
5,FQVH,≤ 0.25
6,PNSY,≤ 0.25
7,SPHA,≤ 0.25
8,KGES,≤ 0.25
9,QIHL,9.08
10,LATP,≤ 0.25
11,TCCW,≤ 0.25
12,NRKW,≤ 0.25
13,WGMR,≤ 0.25
14,NDRE,≤ 0.25
15,HDCK,≤ 0.25
16,EWFV,≤ 0.25
17,GLNS,≤ 0.25
18,CFFV,≤ 0.25
19,TDFC,≤ 0.25
20,ISHA,≤ 0.25
21,IYQW,≤ 0.25
22,GEQS,≤ 0.25
23,KCYG,≤ 0.25
24,STYY,≤ 0.25

row,Variant,enrichment ratio
1,KMSP,≤ 0.25
2,WSQI,≤ 0.25
3,SKGH,1.69
4,FELY,≤ 0.25
5,VNYA,≤ 0.25
6,QCYF,≤ 0.25
7,DFQT,≤ 0.25
8,WYKC,≤ 0.25
9,ARFW,≤ 0.25
10,YNVK,≤ 0.25
11,RVWW,≤ 0.25
12,TFDL,≤ 0.25
13,WDPC,≤ 0.25
14,MDLT,≤ 0.25
15,HHLR,≤ 0.25
16,SEHL,≤ 0.25
17,EEPR,≤ 0.25
18,PSVG,≤ 0.25
19,RCKN,≤ 0.25
20,QHFS,≤ 0.25
21,EADE,≤ 0.25
22,LKEH,≤ 0.25
23,KFFS,≤ 0.25
24,FGYK,≤ 0.25

row,Variant,enrichment ratio
1,FHRD,≤ 0.25
2,DCKP,≤ 0.25
3,SHYL,≤ 0.25
4,FDQH,≤ 0.25
5,ACHK,≤ 0.25
6,WEVN,≤ 0.25
7,IGFW,≤ 0.25
8,ERGR,≤ 0.25
9,KRGP,≤ 0.25
10,EIFN,≤ 0.25
11,GAKH,≤ 0.25
12,IDQK,≤ 0.25
13,TCVH,1.81
14,PWKH,≤ 0.25
15,VTRP,≤ 0.25
16,MPWN,≤ 0.25
17,VHGS,≤ 0.25
18,AISH,6.86
19,FTTS,≤ 0.25
20,APCG,≤ 0.25
21,EHCN,≤ 0.25
22,FFDC,≤ 0.25
23,MYWF,≤ 0.25
24,MTVQ,≤ 0.25

row,Variant,enrichment ratio
1,MYFC,≤ 0.25
2,YYAH,≤ 0.25
3,IQQF,≤ 0.25
4,ERRY,≤ 0.25
5,RCFQ,≤ 0.25
6,FGLE,9.52
7,FVCF,12
8,GSLD,≤ 0.25
9,MGIL,6.12
10,RAVG,1.75
11,NCCL,≤ 0.25
12,VQDE,≤ 0.25
13,DCSG,≤ 0.25
14,NTQF,≤ 0.25
15,AKFV,≤ 0.25
16,FYES,≤ 0.25
17,TYTR,0.743
18,GRNM,≤ 0.25
19,LGCW,≤ 0.25
20,QYIS,≤ 0.25
21,SVCP,≤ 0.25
22,PGDP,≤ 0.25
23,HHQN,≤ 0.25
24,RKSF,≤ 0.25

row,Variant,enrichment ratio
1,THPV,≤ 0.25
2,ELLM,≤ 0.25
3,LTWD,≤ 0.25
4,TANY,6.49
5,VPAF,≤ 0.25
6,TSYV,6.72
7,ISIV,≤ 0.25
8,EQCQ,≤ 0.25
9,HQEV,≤ 0.25
10,RMDY,≤ 0.25
11,RCPN,≤ 0.25
12,RIGA,≤ 0.25
13,HCIP,≤ 0.25
14,WQWL,≤ 0.25
15,AWLI,≤ 0.25
16,IRAV,≤ 0.25
17,ACYK,≤ 0.25
18,MRVT,≤ 0.25
19,SQSS,11.6
20,IHKV,≤ 0.25
21,SVEW,≤ 0.25
22,KGVS,≤ 0.25
23,VCRY,≤ 0.25
24,DYNI,≤ 0.25

row,Variant,enrichment ratio
1,YGGV,≤ 0.25
2,IGAS,≤ 0.25
3,QMLK,≤ 0.25
4,LNRR,≤ 0.25
5,NNVY,≤ 0.25
6,FIIN,1.02
7,MRRT,≤ 0.25
8,ILTG,≤ 0.25
9,PDFA,≤ 0.25
10,KDRA,≤ 0.25
11,ATKW,≤ 0.25
12,WGAL,≤ 0.25
13,QFNR,≤ 0.25
14,EQDI,≤ 0.25
15,SIAQ,10.9
16,YFAS,≤ 0.25
17,YIST,0.468
18,GPMG,≤ 0.25
19,GNQD,≤ 0.25
20,AVIG,9.96
21,STAD,≤ 0.25
22,KFAY,≤ 0.25
23,DYGY,≤ 0.25
24,EPVS,≤ 0.25

row,Variant,enrichment ratio
1,KCST,≤ 0.25
2,NYEF,≤ 0.25
3,GYGL,≤ 0.25
4,PCNH,≤ 0.25
5,SGHY,≤ 0.25
6,ELGI,≤ 0.25
7,TDEK,≤ 0.25
8,RWCI,≤ 0.25
9,GNNT,≤ 0.25
10,FASP,≤ 0.25
11,YLSL,≤ 0.25
12,ETHK,≤ 0.25
13,IVQD,≤ 0.25
14,LNYF,≤ 0.25
15,WCTI,≤ 0.25
16,PRAY,≤ 0.25
17,RNDV,≤ 0.25
18,TGDA,≤ 0.25
19,YPIR,≤ 0.25
20,ILYL,≤ 0.25
21,SKSN,≤ 0.25
22,IDYS,≤ 0.25
23,TLWS,≤ 0.25
24,QQLG,2.01

row,Variant,enrichment ratio
1,ECAA,≤ 0.25
2,SPFR,≤ 0.25
3,HSFG,≤ 0.25
4,IQVY,≤ 0.25
5,YSML,14.4
6,AMSA,8.08
7,ARMH,≤ 0.25
8,LCPY,≤ 0.25
9,LIDW,≤ 0.25
10,KPRD,≤ 0.25
11,ENAT,≤ 0.25
12,EFKY,≤ 0.25
13,SPMP,≤ 0.25
14,LWMY,≤ 0.25
15,RKQK,≤ 0.25
16,GWWF,≤ 0.25
17,NETS,≤ 0.25
18,YQCD,≤ 0.25
19,HYLY,≤ 0.25
20,KLLW,≤ 0.25
21,TQYH,0.375
22,EMAM,≤ 0.25
23,RPSV,≤ 0.25
24,THKM,≤ 0.25

row,Variant,enrichment ratio
1,LHAW,≤ 0.25
2,RKAL,≤ 0.25
3,HWAL,≤ 0.25
4,SLNN,≤ 0.25
5,FGSN,≤ 0.25
6,FPYS,≤ 0.25
7,EFQY,≤ 0.25
8,RFQA,≤ 0.25
9,SMYI,≤ 0.25
10,MLRA,≤ 0.25
11,KHPA,≤ 0.25
12,RYPF,≤ 0.25
13,YVRF,≤ 0.25
14,YYWH,≤ 0.25
15,RFGN,≤ 0.25
16,HLSF,≤ 0.25
17,LRNS,≤ 0.25
18,SGNK,≤ 0.25
19,EDQF,≤ 0.25
20,FIIM,≤ 0.25
21,VWGR,≤ 0.25
22,KPAS,≤ 0.25
23,TCTE,≤ 0.25
24,YGNF,≤ 0.25

row,Variant,enrichment ratio
1,HFRD,≤ 0.25
2,NRTE,≤ 0.25
3,THVV,1.48
4,QLTN,≤ 0.25
5,GAPT,≤ 0.25
6,AACH,≤ 0.25
7,IEFE,≤ 0.25
8,MCRC,≤ 0.25
9,IYYL,≤ 0.25
10,KFTF,≤ 0.25
11,QSDR,≤ 0.25
12,KQEN,≤ 0.25
13,RYLM,≤ 0.25
14,LWCH,≤ 0.25
15,DFDY,≤ 0.25
16,WQAL,≤ 0.25
17,KCHP,≤ 0.25
18,IPED,≤ 0.25
19,DGAF,≤ 0.25
20,KCCC,≤ 0.25
21,YHYN,≤ 0.25
22,TRAP,≤ 0.25
23,VWIM,≤ 0.25
24,VMVI,≤ 0.25

row,Variant,enrichment ratio
1,MGST,1.23
2,LIAL,≤ 0.25
3,QDEY,≤ 0.25
4,KYSG,≤ 0.25
5,RSFK,≤ 0.25
6,YSCT,≤ 0.25
7,IDLT,≤ 0.25
8,TCSF,8.33
9,WEIK,≤ 0.25
10,NYNH,≤ 0.25
11,AAKR,≤ 0.25
12,YKTM,≤ 0.25
13,DNMA,≤ 0.25
14,FICY,≤ 0.25
15,MHTS,≤ 0.25
16,PDRI,≤ 0.25
17,SRNC,≤ 0.25
18,PIQD,≤ 0.25
19,GHKK,≤ 0.25
20,STGA,2.45
21,WDPH,≤ 0.25
22,EEVH,≤ 0.25
23,AGKV,≤ 0.25
24,NNHA,≤ 0.25

row,Variant,enrichment ratio
1,EHLQ,≤ 0.25
2,EQPA,≤ 0.25
3,DNPA,≤ 0.25
4,YEAI,≤ 0.25
5,DPER,≤ 0.25
6,SLKF,≤ 0.25
7,KPYA,≤ 0.25
8,EDDQ,≤ 0.25
9,YGYG,≤ 0.25
10,PYPS,≤ 0.25
11,QESW,≤ 0.25
12,LWII,≤ 0.25
13,HQLS,≤ 0.25
14,KMPI,≤ 0.25
15,ERRD,≤ 0.25
16,PVSP,≤ 0.25
17,DKVE,≤ 0.25
18,TRWC,≤ 0.25
19,GTCR,≤ 0.25
20,LAPY,≤ 0.25
21,RIEH,≤ 0.25
22,LFEV,≤ 0.25
23,QTSI,5.6
24,WCHW,≤ 0.25

row,Variant,enrichment ratio
1,FWIF,≤ 0.25
2,YSNT,≤ 0.25
3,QRPQ,≤ 0.25
4,MGRP,≤ 0.25
5,ETFQ,≤ 0.25
6,AMDY,≤ 0.25
7,PKAH,≤ 0.25
8,LVAK,≤ 0.25
9,YTMG,0.723
10,ESIP,≤ 0.25
11,YEWC,≤ 0.25
12,EFSK,≤ 0.25
13,AFCE,≤ 0.25
14,MPDT,≤ 0.25
15,NVWF,≤ 0.25
16,FPPK,≤ 0.25
17,HSPV,≤ 0.25
18,WERH,≤ 0.25

# — a collection of fitness landscapes (doi:10.1126/science.1257360)
